Assay results as given in article PMC2685083 (Nucleic Acids Research, 2009).

Assays:
SEC = target: the molecule itself; assay: SEC
[1] = target: α catalytic subunit of Pol III (E. coli, UniProt P10443); assay: SPR

Binder	stoichiometry N (SEC)	Kd [1] [µM]	koff [1] [s⁻¹]	kon [1] [M⁻¹ s⁻¹]
β^C clamp, untagged homodimer (β lacking its C-terminal five residues M362-L366) (domain or fragment) not shown	2			
his6-tagged β^C homodimer (domain or fragment) not shown		1.78	0.00423	2380
